Data taken from publication PMC3418226.
These are yes or no findings as the source states them, for the method shown. In cells and extracts the contact can be indirect. Some results given as binding are weak or reduced against the parent protein; the word gives no strength. Where a sequence is shown, tags or fusion partners need not be part of it.

By UniProt entry, the sequences of proteins in these tests, tags left out. Where a name states a change or a piece, a line headed by the entry shows the natural chain unless it says otherwise. Chains listed by the source or under a name are the forms on record and can include a tag or linker. Residues count along the entry.
myc-CD3ζ Y72FY83F (P20963-1, form named): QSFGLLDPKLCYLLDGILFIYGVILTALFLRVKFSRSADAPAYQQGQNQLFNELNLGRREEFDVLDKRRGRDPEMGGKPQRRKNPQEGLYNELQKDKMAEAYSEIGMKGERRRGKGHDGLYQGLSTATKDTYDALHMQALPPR
myc-CD3ζ-Y72F (P20963-1, form named): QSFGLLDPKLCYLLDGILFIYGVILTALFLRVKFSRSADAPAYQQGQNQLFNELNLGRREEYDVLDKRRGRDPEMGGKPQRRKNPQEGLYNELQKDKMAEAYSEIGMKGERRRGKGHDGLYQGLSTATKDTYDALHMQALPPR
myc-CD3ζ-Y83F (P20963-1, form named): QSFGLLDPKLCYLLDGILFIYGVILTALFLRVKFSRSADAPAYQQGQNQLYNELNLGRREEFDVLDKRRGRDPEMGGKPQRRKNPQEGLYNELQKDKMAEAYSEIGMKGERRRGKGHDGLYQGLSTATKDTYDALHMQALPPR
UniProt Q96DU3, residues 22-332: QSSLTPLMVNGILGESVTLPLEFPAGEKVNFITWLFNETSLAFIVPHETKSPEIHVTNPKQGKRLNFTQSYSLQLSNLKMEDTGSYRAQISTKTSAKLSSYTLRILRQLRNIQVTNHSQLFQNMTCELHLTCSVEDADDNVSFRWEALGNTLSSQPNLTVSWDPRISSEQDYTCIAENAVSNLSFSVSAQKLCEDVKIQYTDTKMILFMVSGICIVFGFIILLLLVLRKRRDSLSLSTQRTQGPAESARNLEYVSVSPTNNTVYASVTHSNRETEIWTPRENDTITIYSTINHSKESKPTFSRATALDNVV

What was measured:
GST-SAP fusion protein [1] = target: T1, GST-SAP fusion protein (UniProt O60880); experiment: pull-down; purified GST-SAP added to precleared lysates of T-cell blasts (PBL) stimulated or not with UCHT-1 for 10 min; glutathione-sepharose, 4°C; blots for phosphotyrosine or CD3ζ; only the target purified
T1 sequence: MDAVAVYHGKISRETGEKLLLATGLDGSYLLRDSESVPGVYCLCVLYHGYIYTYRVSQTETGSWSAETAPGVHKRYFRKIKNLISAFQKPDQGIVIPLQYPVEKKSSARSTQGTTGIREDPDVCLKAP

GST-SAP fusion protein [2] = target: T1, GST-SAP fusion protein; experiment: pull-down; purified GST-SAP (2-5 μg) added to precleared whole cell lysates of Jurkat cells, untreated or stimulated with UCHT-1 (10 min) or 25 μM pervanadate (30 min); glutathione-sepharose, 4°C; blots for phosphotyrosine, NTB-A or CD3ζ; only the target purified
GST-SAP fusion protein [3] = target: T1, GST-SAP fusion protein; experiment: pull-down; purified GST-SAP added to precleared lysates of HeLa cells transfected with myc-CD3ζ constructs, 48 h, treated with pervanadate; glutathione-sepharose; anti-Myc (9E10) blot; only the target purified

Substance	binding (GST-SAP fusion protein [1])	binding (GST-SAP fusion protein [2])	binding (GST-SAP fusion protein [3])
CD3ζ from activated T cells, tyrosine-phosphorylated p20-21 forms (from UniProt P20963-1 22-164)	binds	binds	–
NTB-A (from UniProt Q96DU3 22-332) (receptor)	–	binds	–
myc-CD3ζ Y72FY83F (from UniProt P20963-1 22-164)	–	–	no binding
myc-CD3ζ-WT (from UniProt P20963-1 22-164)	–	–	binds
myc-CD3ζ-Y72F (from UniProt P20963-1 22-164)	–	–	binds
myc-CD3ζ-Y83F (from UniProt P20963-1 22-164)	–	–	binds
